PMC6303346
Results are given in words; binding and its absence hold for the method and conditions named. In cells and extracts the contact can be indirect. Some entries that bind do so weakly or less than the wild type.

Sequences of proteins named here, by UniProt entry; tags and fusion partners are left off.
UniProt Q00417: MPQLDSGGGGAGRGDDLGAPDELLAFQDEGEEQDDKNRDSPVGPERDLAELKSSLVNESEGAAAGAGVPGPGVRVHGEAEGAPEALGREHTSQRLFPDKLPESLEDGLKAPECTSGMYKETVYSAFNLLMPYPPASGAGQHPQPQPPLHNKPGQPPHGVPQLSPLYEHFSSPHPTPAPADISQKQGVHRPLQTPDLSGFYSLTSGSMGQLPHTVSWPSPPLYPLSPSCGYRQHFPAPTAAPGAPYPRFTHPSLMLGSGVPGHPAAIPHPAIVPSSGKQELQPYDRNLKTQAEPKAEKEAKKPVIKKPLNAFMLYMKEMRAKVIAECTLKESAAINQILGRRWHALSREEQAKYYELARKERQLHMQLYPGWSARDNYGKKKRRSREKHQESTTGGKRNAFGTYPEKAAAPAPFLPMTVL
UniProt Q96KQ7: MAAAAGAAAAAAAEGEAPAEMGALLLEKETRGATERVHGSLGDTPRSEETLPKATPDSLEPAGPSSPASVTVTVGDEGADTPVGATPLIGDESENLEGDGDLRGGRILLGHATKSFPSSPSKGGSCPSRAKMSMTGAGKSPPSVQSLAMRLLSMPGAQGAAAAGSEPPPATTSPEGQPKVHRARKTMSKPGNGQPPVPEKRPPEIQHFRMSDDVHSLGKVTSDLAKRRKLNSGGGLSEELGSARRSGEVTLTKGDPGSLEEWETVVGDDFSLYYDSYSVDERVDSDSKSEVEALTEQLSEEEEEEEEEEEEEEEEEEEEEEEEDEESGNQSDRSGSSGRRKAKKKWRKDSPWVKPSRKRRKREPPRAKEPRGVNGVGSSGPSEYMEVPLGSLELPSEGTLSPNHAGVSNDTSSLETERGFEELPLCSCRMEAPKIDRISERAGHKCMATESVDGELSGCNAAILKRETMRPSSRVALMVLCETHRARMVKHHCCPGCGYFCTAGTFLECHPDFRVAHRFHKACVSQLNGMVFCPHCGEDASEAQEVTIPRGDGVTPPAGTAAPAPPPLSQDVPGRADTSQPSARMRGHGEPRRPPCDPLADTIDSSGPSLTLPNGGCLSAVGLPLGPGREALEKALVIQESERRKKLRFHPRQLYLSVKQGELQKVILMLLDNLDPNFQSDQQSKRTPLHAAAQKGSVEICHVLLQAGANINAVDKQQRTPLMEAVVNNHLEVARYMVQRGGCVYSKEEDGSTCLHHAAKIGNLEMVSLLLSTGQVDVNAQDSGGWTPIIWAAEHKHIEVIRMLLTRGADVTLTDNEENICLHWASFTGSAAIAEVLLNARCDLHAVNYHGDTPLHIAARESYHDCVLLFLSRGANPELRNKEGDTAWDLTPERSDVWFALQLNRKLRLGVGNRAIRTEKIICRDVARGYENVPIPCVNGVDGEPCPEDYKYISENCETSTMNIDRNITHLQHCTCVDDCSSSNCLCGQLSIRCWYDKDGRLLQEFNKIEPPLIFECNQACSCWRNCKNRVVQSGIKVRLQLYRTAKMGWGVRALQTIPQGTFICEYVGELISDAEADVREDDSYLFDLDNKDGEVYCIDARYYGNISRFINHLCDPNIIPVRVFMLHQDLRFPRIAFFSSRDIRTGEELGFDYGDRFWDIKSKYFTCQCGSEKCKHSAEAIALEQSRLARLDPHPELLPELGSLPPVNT
UniProt Q61188: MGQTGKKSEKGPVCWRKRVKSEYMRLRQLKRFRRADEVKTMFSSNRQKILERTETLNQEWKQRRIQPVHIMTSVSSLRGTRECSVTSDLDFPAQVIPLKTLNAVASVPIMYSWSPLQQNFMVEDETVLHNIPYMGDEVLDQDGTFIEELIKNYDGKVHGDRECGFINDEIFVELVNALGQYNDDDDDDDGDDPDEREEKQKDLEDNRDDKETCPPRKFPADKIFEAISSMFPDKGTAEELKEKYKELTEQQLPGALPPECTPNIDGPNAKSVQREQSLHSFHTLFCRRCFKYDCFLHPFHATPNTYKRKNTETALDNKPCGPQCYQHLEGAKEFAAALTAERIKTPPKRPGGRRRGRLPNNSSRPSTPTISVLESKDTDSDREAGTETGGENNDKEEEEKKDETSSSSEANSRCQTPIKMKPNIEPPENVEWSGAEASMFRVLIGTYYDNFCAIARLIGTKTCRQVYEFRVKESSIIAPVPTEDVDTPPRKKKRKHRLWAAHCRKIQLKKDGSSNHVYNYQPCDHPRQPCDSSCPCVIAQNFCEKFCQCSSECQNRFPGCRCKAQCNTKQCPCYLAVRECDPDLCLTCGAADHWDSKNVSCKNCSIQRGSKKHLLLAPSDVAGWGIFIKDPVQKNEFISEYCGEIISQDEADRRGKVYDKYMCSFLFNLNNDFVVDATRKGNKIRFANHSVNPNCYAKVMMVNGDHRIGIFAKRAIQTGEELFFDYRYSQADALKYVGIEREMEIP

Key:
FLAG-tagged Tcf1 = FLAG-tagged Tcf1 (UniProt Q00417); assay: co-IP; 293T cells co-transfected with FLAG-Tcf1 and HA-Ezh2 or HA-G9a; lysates 48 h later incubated overnight with anti-FLAG (M2), Dynabeads Protein G; immunoblot with anti-HA
[1] = target: Tcf1 (endogenous, primary TFH cells) (mouse (endogenous in primary TFH cells)) (UniProt Q00417); assay: co-IP; endogenous proteins; lysate of sorted CXCR5+SLAMlo TFH cells from LCMV-infected mice; anti-Tcf1 (C63D9) or normal rabbit IgG, 5 h at 4 °C, Dynabeads Protein G; immunoblot with anti-Ezh2
WT Bcl6 = WT Bcl6 (UniProt P41183); assay: co-IP; 293T cells co-transfected with Bcl6-mCherry and Arf-GFP (WT or mutant forms); lysates immunoprecipitated with anti-Bcl6 (D65C10), immunoblot with anti-p19Arf (5-C3-1)

binding (WT Bcl6)	Molecule	other results
	HA-tagged G9a (from UniProt Q96KQ7 1-1210) (enzyme)	binding (FLAG-tagged Tcf1): no binding
	Ezh2 (endogenous, primary TFH cells) (from UniProt Q61188 1-746) (enzyme)	binding [1]: binds
binds	WT p19Arf (protein, UniProt Q64364 1-169) MGRRFLVTVRIQRAGRPLQERVFLVKFVRSRRPRTASCALAFVNMLLRLERILRRGPHRNPGPGDDDGQRSRSSSSAQLRCRFELRGPHYLLPPGARRSAGRLPGHAGGAARVRGSAGCARCLGSPAARLGPRAGTSRHRAIFAFRWVLFVFRWVVFVYRWERRPDRRA	
binds weakly	ArfΔ37 (domain or fragment, UniProt Q64364 38-169) CALAFVNMLLRLERILRRGPHRNPGPGDDDGQRSRSSSSAQLRCRFELRGPHYLLPPGARRSAGRLPGHAGGAARVRGSAGCARCLGSPAARLGPRAGTSRHRAIFAFRWVLFVFRWVVFVYRWERRPDRRA	
binds	ArfΔ14 (domain or fragment, UniProt Q64364 15-169) GRPLQERVFLVKFVRSRRPRTASCALAFVNMLLRLERILRRGPHRNPGPGDDDGQRSRSSSSAQLRCRFELRGPHYLLPPGARRSAGRLPGHAGGAARVRGSAGCARCLGSPAARLGPRAGTSRHRAIFAFRWVLFVFRWVVFVYRWERRPDRRA	
